± gives the standard deviation of the averaged measurements. Laboratory Escherichia coli strains with one amino-acid change in an essential protein, pooled on minimal glucose agar with carbenicillin or gentamicin at twice the control MIC (plus kanamycin and chloramphenicol for the plasmids), 48 h. Fold change of barcode share against drug-free plates; higher = less susceptible. Active = above 20 in both replicates (the paper's putatively resistant). '<' = one read or none on drug, '>' = one read or none on a drug-free plate. Shares are relative, so most strains fall below 1 when a few take over. Listed are strains with at least 15 reads on both drug-free plates, and hits; most hits rest on fewer reference reads. Replicate rank correlation about 0.5. Edits are read from barcodes.
B1: hisC; numbered along this chain (parent)
chain: MSTVTITDLARENVRNLTPYQSARRLGGNGDVWLNANEYPTAVEFQLTQQTLNRYPECQPKAVIENYAQYAGVKPEQVLVSRGADEGIELLIRAFCEPGKDAILYCPPTYGMYSVSAETIGVECRTVPTLDNWQLDLQGISDKLDGVKVVYVCSPNNPTGQLINPQDFRTLLELTRGKAIVVADEAYIEFCPQASLAGWLAEYPHLAILRTLSKAFALAGLRCGFTLANEEVINLLMKVIAPYPLSTPVADIAAQALSPQGIVAMRERVAQIIAEREYLIAALKEIPCVEQVFDSETNYILARFKASSAVFKSLWDQGIILRDQNKQPSLSGCLRITVGTREESQRVIDALRAEQV
B2: nrdB; numbered along this chain (parent)
chain: MAYTTFSQTKNDQLKEPMFFGQPVNVARYDQQKYDIFEKLIEKQLSFFWRPEEVDVSRDRIDYQALPEHEKHIFISNLKYQTLLDSIQGRSPNVALLPLISIPELETWVETWAFSETIHSRSYTHIIRNIVNDPSVVFDDIVTNEQIQKRAEGISSYYDELIEMTSYWHLLGEGTHTVNGKTVTVSLRELKKKLYLCLMSVNALEAIRFYVSFACSFAFAERELMEGNAKIIRLIARDEALHLTGTQHMLNLLRSGADDPEMAEIAEECKQECYDLFVQAAQQEKDWADYLFRDGSMIGLNKDILCQYVEYITNIRMQAVGLDLPFQTRSNPIPWINTWLVSDNVQVAPQEVEVSSYLVGQIDSEVDTDDLSNFQL

Variants of: B1
Assay: barcode share on antibiotic plates over drug-free plates; higher = less susceptible
Settings: with Escherichia coli (laboratory strain); antibiotic: carbenicillin; 2× MIC (3.1 µg/mL)
Experimental: (§1)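 A pool of E. coli strains, each edited to carry one amino-acid change in an essential protein, was grown for 48 h on minimal glucose agar with or without antibiotic; strain barcodes were sequenced; mean of two replicates.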

Variant	fold change of barcode share
I92P	0.513 ± 0.2
I92Q	0.587 ± 0.17
I92W	0.447 ± 0.12
I103D	0.581 ± 0.16
I103W	1.72 ± 0.76
L104A	0.481 ± 0.2
L104D	0.692 ± 0.22
L104Q	0.559 ± 0.065
L104W	0.416 ± 0.13
V182P	0.716 ± 0.3
V182Q	0.398 ± 0.0027
L334A	0.502 ± 0.05
L334Q	0.317 ± 0.018
L334W	0.41 ± 0.061
I336A	0.776 ± 0.23
I336P	0.379 ± 0.19
I336Q	0.318 ± 0.061
I336W	0.454 ± 0.16

Same assay, conditions: with Escherichia coli (laboratory strain); antibiotic: gentamicin; 2× MIC (MIC 0.45 µg/mL)

Variant	fold change of barcode share
I92P	< 0.00295
I92Q	< 0.0068
I92W	0.00923 ± 0.0023
I103D	0.0726 ± 0.08
I103W	0.0414 ± 0.035
L104A	0.0223 ± 0.014
L104D	< 0.0156
L104Q	0.035 ± 0.001
L104W	0.0181 ± 0.012
V182P	< 0.0187
L334Q	< 0.014
L334W	< 0.0119
I336A	< 0.0164
I336P	0.027 ± 0.022
I336Q	< 0.0129
I336W	< 0.0119
V182A	< 0.0135

Variants of: B2
Assay: as above
Settings: with Escherichia coli (laboratory strain); antibiotic: carbenicillin; 2× MIC (3.1 µg/mL)
Experimental: as §1

Variant	fold change of barcode share
V24A	0.717 ± 0.75
V24P	0.749 ± 0.32
V24Q	0.188 ± 0.033
L97A	0.295 ± 0.089
L97D	0.165 ± 0.011
L97P	0.1 ± 0.047
L97Q	0.193 ± 0.15
L97W	0.436 ± 0.03
L99A	0.18 ± 0.054
L99D	0.25 ± 0.1
L99P	0.118 ± 0.0012

Same assay, conditions: with Escherichia coli (laboratory strain); antibiotic: gentamicin; 2× MIC (MIC 0.45 µg/mL)

Variant	fold change of barcode share
V24A	0.0274 ± 0.026
V24P	0.00721 ± 0.0036
V24Q	< 0.00826
L97A	0.0149 ± 0.016
L97D	0.0113 ± 0.0099
L97P	0.756 ± 1.1
L97Q	< 0.00577
L97W	0.0056 ± 0.004
L99A	< 0.00495
L99D	< 0.00797
L99P	< 0.00922

— the supplement of paper PMC11876631
